According to PubChem BioAssay AID588855 (National Center for Advancing Translational Sciences (NCATS), 2011):
Screen size: about 410,000 compounds; about 5,000 (1.2%) were called active. The inconclusive results got no clear call from the source; some entries with a clear call stand among them for comparison. The call rests on the fitted dose curve; in most records, active means well fitted inhibition curve with a large enough effect; inconclusive means small, poorly fitted or top-dose-only effect; inactive means no such curve, though single readings can be large or run the other way. Where the call is inconclusive, the potency comes from a doubtful curve fit.

experiment: qHTS for Inhibitors of TGF-b; settings: HepG2 CAGA-GFP TGF-b/SMAD3 reporter, GFP fluorescence, 18 h, TGF-beta stimulated, 500 pg/mL final; series mostly up to 46.1 µM; activity, negative = inhibition: at the top concentration; further: nearly all actives have a fitted effect of over 65% in size
How it was run: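 Read-out: total well GFP (ex488/em500-530) summed from mean per-cell fluorescence. Cells: HEPG2 CAGA-GFP, 1% FBS DMEM, 18 h at 37 degrees C with 500 pg/mL final TGF-beta. Unstimulated wells served as the full-inhibition control; stimulated DMSO wells = 0%.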
On the % scale 0 is the no-effect control and ±100 the full control effect; potency means the concentration at half of the fitted maximal effect; tags describe the fitted curve by direction and shape.

Compound | Potency | activity, negative = inhibition
Cc1cc(C)c(Cn2c(=O)n(CCC(=O)NCCc3ccccc3)c(=O)c3ccccc32)c(C)c1 | inconclusive: 3.55 µM [inhibitor, partial curve, poor fit] | 
COc1ccc2[nH]c3c(=O)n4c(nc3c2c1)SCCC4 | inconclusive: 17.8 µM [inhibitor, partial curve, poor fit] | 
CC(C)(C)NC(=O)/C(=C\C=C\c1ccccc1)NC(=O)c1ccc([N+](=O)[O-])cc1 | inconclusive: 22.4 µM [inhibitor, single point] | 
O=c1c2ccccc2nc(/C=C/c2cccc([N+](=O)[O-])c2)n1CCCO |  | inactive: 0%
CCCc1ccc(OCc2nc(-c3ccc(NC(=O)c4ccco4)cc3)no2)cc1 |  | inactive: -5.68%
COc1ccc(C(=O)NCCSc2c[nH]c3ccccc23)cc1OC |  | inactive: -22.9%
Clc1ccc(CSc2ccc(-c3cccs3)nn2)cc1 | inconclusive: 5.62 µM [inhibitor, single point] | 
COC(=O)c1ccc(-c2ccc(/C=N/NC(=O)Cc3nnc(N)s3)o2)cc1 |  | inactive: -0.0695%
Cn1/c(=N/N=C/c2ccccn2)sc2ccccc21 |  | inactive: 9.78%
Cc1ccc(C(CCNC(C)c2cccs2)c2ccco2)cc1 (stereo not drawn) | inconclusive: 35.5 µM [inhibitor, partial curve, poor fit] | 
COC(=O)CN1C(=O)CSc2ccc(S(=O)(=O)Nc3ccc(F)c(Cl)c3)cc21 | inconclusive: 35.5 µM [inhibitor, single point] | 
CCC(CC)C(=O)N1c2ccccc2C(C)(c2ccccc2)CC1(C)C (stereo not drawn) | inconclusive: 20 µM [inhibitor, partial curve, poor fit] | 
COc1ccc(-n2c(=O)c3c4c(sc3n(Cc3ccc(F)cc3)c2=O)CN(C(C)=O)CC4)c(OC)c1 | inconclusive: 3.16 µM [inhibitor, partial curve, poor fit] | 
CCOC(=O)c1cc(C(C)C)sc1NC(=O)COC(=O)c1nccnc1N | inconclusive: 35.5 µM [inhibitor, single point] | 
Cc1ccc(-c2cc3cccc[n+]3cc2-c2ccc(C)cc2)cc1 | inconclusive: 8.91 µM [inhibitor, partial curve, poor fit] | 
N#C/C(=C\c1cc2c(cc1Br)OCO2)c1ccc(C(=O)O)cc1 |  | inactive: 15.6%
CCCCc1ccc(-n2nc3ccc(NC(=O)c4cc5ccccc5o4)cc3n2)cc1 | inconclusive: 35.5 µM [inhibitor, single point] | 
Cc1cccnc1C(NC(=O)C1CCN(Cc2ccc(Cl)c(Cl)c2)CC1)c1ccc(Cl)cc1 (stereo not drawn) | active: 11.2 µM | 
Cn1c(=O)c2c(nc(SCC(=O)N3CCc4ccccc4C3)n2C)n(C)c1=O |  | inactive: -3.25%
COc1ccc(S(=O)(=O)N2CCCCC2)cc1NC(=O)CN(Cc1ccco1)Cc1ccco1 | inconclusive: 3.16 µM [inhibitor, full curve] | 
Cc1cc(C)c(S(=O)(=O)Nc2cccc3nsnc23)c(C)c1 | inconclusive: 25.1 µM [inhibitor, single point] | 
Cc1csc(NC(=O)C(C)Oc2ccc(Cl)cc2C)n1 (stereo not drawn) | inconclusive: 14.1 µM [inhibitor, partial curve] | 
O=C(Nc1nc(-c2ccccn2)cs1)c1ncc(Cl)c(Cl)c1Cl | inconclusive: 14.1 µM [inhibitor, single point] | 

Compound | Potency | activity, negative = inhibition
COc1ccc(-c2nc(N)nc(C)c2-c2ccc(Cl)cc2)c(O)c1 | inconclusive: 15.8 µM [inhibitor, single point] | 
Cc1sc(-n2c(C)cc(/C=N/n3cnnc3)c2C)c(C#N)c1C | inconclusive: 35.5 µM [inhibitor, single point] | 
Cc1cc(NC(=O)c2cc(C)on2)n(-c2ccccc2)n1 | inconclusive: 3.16 µM [inhibitor, single point] | 
CC1Cc2ccccc2N1C(=O)C1CCCN(S(=O)(=O)c2cccc3nsnc23)C1 (stereo not drawn) |  | inactive: -12.3%
COc1cc(Cl)c(C)cc1NC(=O)CN1CCN(C(=O)c2cccs2)CC1 |  | inactive: -1.9%
Cc1cc(C)cc(NC(=O)Cc2csc(COc3cccc(C)c3)n2)c1 |  | inactive: -0.696%
CC(C)C[C@@H](CN)NC(=O)c1nc[nH]c1C(=O)N[C@@H](CC(C)C)C(=O)CNC[C@H](C)NC(=O)c1nc[nH]c1C(=O)N[C@@H](CC(=O)O)C(=O)O |  | inactive: 0.221%
O=C(CSc1ncccc1C(=O)O)NCc1ccc(F)cc1 | inconclusive: 7.94 µM [inhibitor, partial curve] | 
COCCNC(=O)c1cc(-c2cccnc2)nc2ccc(Br)cc12 |  | inactive: 1.46%
O=C(NCC(c1cccnc1)N1CCN(c2ccccc2F)CC1)c1ccc(F)cc1 (stereo not drawn) | inconclusive: 20 µM [inhibitor, single point] | 
C[C@H](CO)N1C[C@H](C)[C@@H](CN(C)Cc2ccc(Oc3ccccc3)cc2)Oc2c(NC(=O)C3CC3)cccc2C1=O | inconclusive: 35.5 µM [inhibitor, single point] | 
COc1ccc(C(C(=O)NC2CCCCC2)N(C(=O)c2sc(C)nc2C)c2ccccc2C)cc1 (stereo not drawn) | inconclusive: 20 µM [inhibitor, single point] | 
CCOC(=O)c1cc2c(C)n(-c3ccc(C)cc3)c(C)c2ccc1=O | inconclusive: 6.31 µM [inhibitor, single point] | 
O=C(O)c1cc(-c2ccc(/C=C3\NC(=O)N(c4ccccc4)C3=O)o2)ccc1Cl |  | inactive: 3.82%
CC(=O)c1c(COC(=O)c2ccc(F)cc2)nc2ccccc2[n+]1[O-] | inconclusive: 6.31 µM [inhibitor, single point] | 
CCc1ccc(OCc2ccc(C(=O)NCc3ccccn3)o2)cc1 |  | inactive: 2.06%
Cc1cccc(NC(=O)c2cnc3sc(N4CCCC4)nn3c2=O)c1C | inconclusive: 6.31 µM [inhibitor, single point] | 
COc1ccc(C2=NOC(C(=O)NC(C)C)C2)cc1 (stereo not drawn) | inconclusive: 2.82 µM [inhibitor, full curve, poor fit] | 
O=c1cc(CN2CCCCC2)c2ccccc2o1 |  | inactive: -16.1%
Cc1cc(NC2CCCCC2)nc(-c2ccccc2O)n1 | inconclusive: 35.5 µM [inhibitor, single point] | 
CC1CCC2(CC1)C(Nc1cccc(Cl)c1)=NC(=S)N2CC#N (stereo not drawn) | inconclusive: 35.5 µM [inhibitor, single point] | 
COc1ccccc1C(=O)Nc1nnc(S(=O)(=O)N2CCOCC2)s1 | inconclusive: 6.31 µM [inhibitor, single point] | 
CCCCOc1ccc(C2=NC(c3cccs3)=Nc3ccc(OC)cc3N2)cc1 | inconclusive: 12.6 µM [inhibitor, single point] | 

Compound | Potency | activity, negative = inhibition
COc1cccc2sc(N(Cc3cccnc3)C(=O)c3ccco3)nc12 | inconclusive: 0.708 µM [inhibitor, full curve, poor fit] | 
CCN(CC)c1ccc(C(=O)NCc2nc3cccnc3n2Cc2ccc(C)cc2)cc1 | inconclusive: 25.1 µM [inhibitor, single point] | 
COc1cc(C(=O)OCC(=O)NC2CCCCC2)cc(OC)c1OC |  | inactive: 9.25%
COc1ccc(Cc2nnc(SCC(=O)Nc3cc(Cl)ccc3C)[nH]c2=O)cc1 |  | inactive: -4.91%
O=C(CSc1nnc(-c2ccccc2)n1-c1ccc(Cl)cc1)N/N=C/c1ccco1 | inconclusive: 0.501 µM [inhibitor, full curve, poor fit] | 
O=C1CC(C(=O)N2CCCc3ccccc32)CN1c1ccc(Cl)cc1 (stereo not drawn) |  | inactive: 25.5%
CCOC(=O)c1c(C)[nH]c(C)c1S(=O)(=O)NCC(=O)Nc1cccc(SC)c1 | inconclusive: 0.112 µM [inhibitor, full curve, poor fit] | 
CCNC(=O)C1(C)CCCN(Cc2ccc(-n3ccnc3)cc2)C1 (stereo not drawn) |  | inactive: -5.23%
CC(=NNC(=S)N1CC2CCC(CC2)C1)c1cccc(C)n1 | inconclusive: 0.398 µM [inhibitor, full curve, poor fit] | 
COc1cccc2sc3ccc(C#CC4(O)CCCCC4)cc3c(=O)c12 | inconclusive: 20 µM [inhibitor, single point] | 
Cc1ccc(-c2cc(C(F)F)n3ncc(C(=O)N4CCc5ccccc54)c3n2)cc1 | inconclusive: 5.62 µM [inhibitor, single point] | 
CCOC(=O)Cc1csc(NC(=O)/C=C/c2ccc(OC)cc2)n1 |  | inactive: -11.8%
Cc1ccc(NC(=S)NCc2ccc3c(c2)cc(C)n3C)c(C)c1 | inconclusive: 17.8 µM [inhibitor, single point] | 
C(/Oc1ccccc1)=C1\Nn2c(nnc2-c2cc(-c3ccccc3)n[nH]2)S1 | inactive | 
O=C1CCC[C@@H]2Cc3nc4ccccc4cc3[C@@H]3CCN1[C@H]23 | inactive | 
COc1ccccc1CNc1nc(NCc2cccc(OC)c2OC)c2sccc2n1 | inconclusive: 35.5 µM [inhibitor, single point] | 
COc1ccc(CN2CCC(C(=O)Nc3ccc(Oc4cccnc4)cc3)CC2)c(C)c1C |  | inactive: 40.5%
CCc1nc2ccc(C(=O)NC3CCN(Cc4ccccc4)CC3)cn2c1N(C)Cc1cc2ccccc2s1 | inconclusive: 35.5 µM [inhibitor, single point] | 
COC(=O)CSc1[nH]c2ccccc2c1[N+](=O)[O-] | inconclusive: 35.5 µM [inhibitor, single point] | 
NS(=O)(=O)c1cc(C(=O)OCC(=O)Nc2ccccc2[N+](=O)[O-])ccc1Cl |  | inactive: 10%
COc1ccc(O)c(/C=N\NC(=O)CCn2nnc3ccccc32)c1 | inconclusive: 11.2 µM [inhibitor, partial curve] | 
CCCCn1c(N)c(N(Cc2ccccc2OC)C(=O)CSCC(=O)Nc2ccc(C)cc2)c(=O)[nH]c1=O | inconclusive: 0.316 µM [inhibitor, full curve, poor fit] | 
